Results from the supplement of paper PMC3334620.
Whole data set: some 33,000 sequences, median “E-score (-0.5 to 0.5)” near -0.012, cut for the highest 2% near 0.27. The list shows a part of the results.

Target: T1, Vhr1 (UniProt P40522)
T1 sequence: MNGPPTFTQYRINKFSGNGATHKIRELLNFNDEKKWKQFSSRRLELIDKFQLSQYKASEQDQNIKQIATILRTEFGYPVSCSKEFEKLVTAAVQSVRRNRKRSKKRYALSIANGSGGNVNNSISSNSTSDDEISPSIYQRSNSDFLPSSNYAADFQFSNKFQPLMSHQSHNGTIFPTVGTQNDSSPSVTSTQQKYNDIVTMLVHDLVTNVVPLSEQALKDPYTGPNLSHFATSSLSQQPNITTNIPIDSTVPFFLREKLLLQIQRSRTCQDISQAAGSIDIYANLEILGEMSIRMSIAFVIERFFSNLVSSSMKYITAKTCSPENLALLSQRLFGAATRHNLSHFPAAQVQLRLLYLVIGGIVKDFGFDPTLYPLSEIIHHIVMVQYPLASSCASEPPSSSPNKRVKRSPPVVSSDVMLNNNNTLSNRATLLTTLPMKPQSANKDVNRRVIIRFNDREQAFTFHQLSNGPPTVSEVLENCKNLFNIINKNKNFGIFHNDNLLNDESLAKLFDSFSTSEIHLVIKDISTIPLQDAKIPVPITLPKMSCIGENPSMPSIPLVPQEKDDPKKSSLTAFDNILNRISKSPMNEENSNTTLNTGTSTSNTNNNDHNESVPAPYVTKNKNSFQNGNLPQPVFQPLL
Assay: PBM E-score (8-mer binding enrichment) (E-score (-0.5 to 0.5)); higher = stronger / more preferred TF binding; most listed sequences are background and not binding sites
Conditions: protein concentration: 200 nM; construct: GST-full length
In short: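 GST-tagged yeast TFs (full-length or DNA-binding domain) were made by PURExpress in vitro transcription/translation and applied at about 100-200 nM to universal all-10-mer Agilent arrays. The arrays were made double-stranded by primer extension, on fresh or once-stripped slides. Bound protein was detected with fluorescent anti-GST, and scans were normalised with masliner. Each ungapped eight-base word, pooled with its reverse complement, received an E-score (modified Wilcoxon-Mann-Whitney statistic) from the Universal PBM Analysis Suite.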

Sequence	PBM E-score
CCGGAGTA	0.0674
CATACCAA	0.152
CTGCGTTC	0.0655
ACGTGCCA	-0.113
ATCGTCTG	0.125
CCCGCGGG	0.102
GGACCGTA	-0.201
CGTGTCAG	0.037
AAATTCCT	-0.23
ATAGTTCG	0.191
CTGTGAAA	-0.053
CAGGCTAG	-0.159
ACGCACGA	0.0415
CATTGTAG	0.15
CTTGTTCC	-0.187
ATTGTTTA	-0.0808
GAACACTA	-0.091
AGGTATTG	0.0621
ACGACCTC	0.247
CCTCCAGC	-0.0494
ATATACAT	0.263
GAAACTAC	-0.0549
CGCTACGA	0.104
CGTGCCCC	-0.0873
CACAGGAG	0.0372

Sequence	PBM E-score
CTCGAACC	-0.1
CTGTGTGC	0.177
TAACAGTA	0.113
ATAGTAAC	0.0117
GGACGCAA	-0.194
ATGCGTCC	-0.00865
ACAGTCAA	0.0811
ACGTTACT	0.0689
CATTGTCG	0.00973
TCAAAGCA	-0.00828
AACACAAA	-0.106
GCGAGCTA	-0.0854
AGAGTAAA	-0.0878
CTAAACAA	-0.118
ATCCCCCG	0.139
ACCAACCT	0.05
CGAGGGGA	0.0238
CGTTAATC	0.0766
AGGTAAAT	-0.0693
CGGGGCTC	0.0123
GGTGATAA	0.0232
GGGAATAC	-0.107
GGATGCCA	-0.183
GGTCAGTA	-0.0697
ACAGTCTA	-0.108

Sequence	PBM E-score
CCACTTGA	0.0707
TAGCACTA	-0.0111
GCTATTAC	0.0507
CAGGAAAC	0.0605
AACTTACG	-0.186
TTAATCAA	0.0622
CCGAGACC	0.0957
GTACTATA	0.163
GGGAAACC	-0.0128
AAATCCGG	0.0683
GAACCGAA	-0.0623
AAGTTGAC	-0.0187
CATCACCC	0.103
GGAGCAAC	-0.106
ACAGCGCT	0.0728
CAAAAGCA	-0.255
GTGAAAAC	-0.0962
AGCGAAGC	-0.213
AGCGATGC	-0.116
GCGTGGCC	-0.157
ATTGGTAA	-0.0186
ACAGATGA	-0.0259
AACACCCT	-0.00488
ACGGGGAA	-0.0773
AAACCAGA	0.0998

Sequence	PBM E-score
CTTCATCC	-0.117
AGAATCAT	0.323
CTCGAGCA	-0.0747
CGGCCTTA	-0.12
ACAAGTGC	-0.0909
ATCTCTGA	0.0425
CCTAACCG	-0.0949
CAAAACGG	0.106
GCTCTTCC	-0.16
AAACCGAC	0.14
ACTTGAAG	-0.00794
ATTCATCG	0.121
CGTGCCGC	-0.0924
ACACTGAG	0.218
TCATAAAA	0.00438
CCGCGGGC	0.228
CTAAATGA	-0.0399
AAGCCCTC	-0.203
AAAGTGGT	0.0656
ACACATAC	0.29
ATCAAGCC	0.0404
GGACTGAA	-0.176
CCAGTGTC	0.0873
AGCGGTTC	0.00261
ACACCTAA	0.0791

Sequence	PBM E-score
ACGGAATG	-0.133
CAGAAACA	-0.0262
GCAAACTA	0.0776
AATCCGAT	0.187
CCCTCATC	-0.0585
CTGTAAAG	-0.268
CATGCGAA	0.161
CAGTCCGA	0.126
CCGTGGAG	-0.0622
CCTGCCCA	-0.0853
ATTGTGAG	0.143
AATAGACG	-0.0346
CCTCGCAG	-0.0348
ACGCCAAT	-0.0106
GAAATATA	0.0204
CAAGAGAG	-0.178
CGCCTGTC	-0.206
CAGTCAGG	0.175
ATCGTCAG	0.0338
CTACTGCA	-0.133
ATCACTGA	0.136
CAGGCCGG	-0.269
ACGAAATA	-0.123
GCCGTACC	0.116
TAGATACA	-0.0628

Sequence	PBM E-score
AAGGCGTC	-0.166
AACCACAG	0.237
GTCGAGGA	-0.221
ACCATGCC	0.127
GCAGGGCC	-0.0834
AACGGTCA	0.0912
CGACTTTC	-0.0185
GCACAGTA	0.142
CATGGGAC	0.02
CGCAAGAA	0.0514
CCGAGACG	-0.0932
AACTGCCG	-0.194
GCAAGAAA	-0.071
ATCGTATC	0.0818
AATACCGG	0.0874
AGTCCTTG	-0.0382
GATGGCAA	0.0306
GGACGGAC	0.0805
TAAAGCTA	-0.189
CGCCGCTA	-0.0131
AGTGCCCA	-0.0649
CCTATAGC	-0.195
ACGTCATA	0.0344
AACTGCCA	-0.0568
AGCGCATA	-0.0303

Sequence	PBM E-score
CGCTCAGA	0.0321
CCTTCGGA	-0.231
AGCATACG	-0.0916
ATCCCACG	0.0325
CTTAGGTC	-0.0837
CTCACTAA	0.236
CTAATATC	0.174
GCCAGATA	-0.154
ACCATCAA	-0.152
CCGTCAGC	-0.142
CACAATGG	0.176
CATCATTA	0.214
TTATATAA	0.161
GAGCATGC	0.106
AGCGGCGG	0.269
AGCATATA	0.224
CGCCCCAG	0.0125
CCTTGATC	0.18
ACATGAAG	-0.119
CCAACTGC	-0.0246
ACAGCGGA	0.00585
AAGCGGGA	-0.0703
